Reference: PubChem BioAssay AID1345083 (National Center for Advancing Translational Sciences (NCATS), 2018)
About 6,200 (6.6%) of roughly 94,000 compounds were called active. Inconclusive results, whose numbers are uncertain, are shown with a selection of clear calls. Calls follow the shape of the dose curve; as a rule, active = well fitted inhibition curve with a large enough effect; inconclusive = small, poorly fitted or top-dose-only effect; inactive = flat fitted curve, though single readings scatter. Potencies beside an inconclusive call are fits to weak or partial responses and may not hold up.
Potency is read from the fitted curve at half-maximal effect; tags tell the direction and shape of the fitted curve.

Assay: Cytotoxic Profiling in HEK 293 Cell Line of Diverse Libraries Using Quantitative High-Throughput Screening; also: nearly all actives have a fitted effect of over 60% in size
Settings: HEK 293 viability, ATP luminescence (CellTiter-Glo), 48-72 h; series mostly up to 115 µM
Outline: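 HEK 293 cells seeded at 250 cells/well were exposed to compound for 48 or 72 hr at 37 degree Celsius. Viability taken as ATP content by CellTiter-Glo luminescence.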
With `CN(C)c1ccc(CN2CC[C@H](c3nc4ccc(C(F)(F)F)cc4[nH]3)C2)cc1` the Potency was active: 31.6 µM. For `COCC(=O)N1CCN(S(=O)(=O)c2ccccc2)C[C@@H]1C(=O)N[C@@H](Cc1ccc(OC)cc1)C(=O)OC`, the Potency was “inactive”. For `Cc1noc(-c2ccc(OC3CN(C(=O)c4ccco4)C3)cc2)n1`, the Potency was inconclusive: 50.1 µM [inhibitor, partial curve, poor fit]. In the case of `CN1CCC(Oc2nccnc2N2CCc3ccccc3C2)C1` (stereo not given), the Potency is reported as inconclusive: 89.1 µM [inhibitor, single point]. With `Cc1nc(C)c(C(=O)N2CCC(c3noc(-c4ccccn4)n3)C2)s1` (stereo not given) the Potency was “inactive”. In the case of `O=C(NCc1ccc(-c2cnc3c(Oc4ccccc4)nccn23)cc1)c1ccn[nH]1`, the Potency is reported as inconclusive: 70.8 µM [inhibitor, partial curve]. For `COc1ccc(F)cc1-c1cccc(C(=O)NCCNC(=O)c2ccc(Cl)nc2)c1`, the Potency was active: 39.8 µM. With `CNC(=O)c1cc(-c2ccc(C)cc2)cc2c1OCCN2Cc1cccnc1` the Potency was inconclusive: 100 µM [inhibitor, partial curve]. With `O=C(CCC[C@@H]1[C@H]2CCCN3CCC[C@@H](CN1C(=O)c1cc(F)ccc1F)[C@@H]23)Nc1ccccc1` the Potency was inconclusive: 79.4 µM [inhibitor, single point]. In the case of `COC(=O)NC1CCN(Cc2cccc(-c3cccs3)c2)CC1`, the Potency is reported as inconclusive: 100 µM [inhibitor, partial curve, poor fit]. With `CCCNc1cc(N2CCC(CCC(=O)N3CCN(c4cccc(C)c4)CC3)CC2)ncn1` the Potency was active: 20 µM. For `COc1cccc(S(=O)(=O)NCC(=O)N2CCCCCNC(=O)CC2c2ccccc2)c1` (stereo not given), the Potency was “inactive”. In the case of `Cc1cc(C)n(CCC(=O)N2CC(Oc3ccc(-c4nc(-c5ccccc5)no4)cc3)C2)n1`, the Potency is reported as active: 31.6 µM. For `COCCN1CCNc2cc(Nc3cccc(OC)c3)ncc2C1`, the Potency was inconclusive: 56.2 µM [inhibitor, full curve]. With `CN(C)C(=O)NC1CCCN(Cc2ccc(-c3cncnc3)cc2)C1` (stereo not given) the Potency was inconclusive: 112 µM [inhibitor, single point]. For `O=C(NCc1ccc2c(c1)OCO2)c1nc2cccnc2n(Cc2ccccc2)c1=O`, the Potency was active: 79.4 µM. For `O=C(NCc1ccccc1)C1CC(=O)N(c2n[nH]c3cccc(F)c23)C1` (stereo not given), the Potency was “inactive”. In the case of `CC1=C[C@@H](CNCc2ccncc2)[C@H](C(C)C)C[C@H]1Cc1nnc(-c2ccc([N+](=O)[O-])cc2)o1`, the Potency is reported as active: 39.8 µM. In the case of `CNC(=O)c1ccn2nccc2c1`, the Potency is reported as “inactive”. With `O=C(Cc1n[nH]c(=O)c2ccccc12)NC1CCCc2c1[nH]c1ccccc21` (stereo not given) the Potency was inconclusive: 8.91 µM [inhibitor, full curve, poor fit]. For `Cc1ccc(C2(C(=O)N[C@@H]3COCC[C@@H]3OCc3ccccc3)CC2)cc1`, the Potency was active: 44.7 µM. With `O=C1CC2CCN(Cc3ccc(Cl)cc3)CC2CCN1` (stereo not given) the Potency was inconclusive: 112 µM [inhibitor, single point]. For `CC1(COc2ccccc2)COc2ccc(C(=O)NCc3cccnc3)cc2N1` (stereo not given), the Potency was inconclusive: 100 µM [inhibitor, partial curve, poor fit]. For `COc1ccc(CCC(=O)N2CCC(N3CC4CC(C3)[C@H]3CCCC(=O)N3C4)CC2)cc1` (stereo not given in full), the Potency was “inactive”. With `CCCN1CCC2(CCN([S+](=O)([O-])c3ccc(C)cc3)CC2)Oc2ccccc21` the Potency was inconclusive: 50.1 µM [inhibitor, partial curve, poor fit]. With `Cc1ccc(-c2cn3c(n2)CO[C@@H](CNCc2ccccc2Cl)C3)cc1` the Potency was active: 89.1 µM. With `COc1cccc(CN2CCOC3CCN(CCCc4ccccc4)CC3C2=O)c1` (stereo not given) the Potency was inconclusive: 63.1 µM [inhibitor, full curve]. In the case of `O=C1NCCCCCCN(Cc2ccncc2)[C@@H]2CN(C(=O)NCCc3ccccc3)CC[C@H]12`, the Potency is reported as inconclusive: 28.2 µM [inhibitor, full curve]. With `CN(CC1CCOC1)C(=O)c1cccc(Cl)c1` (stereo not given) the Potency was “inactive”. For `Cc1nc(N2CCN(C(=O)c3ccc(F)cc3Cl)CC2)cc(C(F)(F)F)n1`, the Potency was “inactive”. In the case of `COc1ccccc1-n1c(=O)c(C(=O)NCCCc2ccccc2)nc2cccnc21`, the Potency is reported as “inactive”. For `CCN(CCCNC(=O)CCn1ccn2nc3c(c2c1=O)CCCC3)c1ccccc1`, the Potency was inconclusive: 50.1 µM [inhibitor, partial curve, poor fit]. With `Fc1ccc(Cc2nc3nccc(-c4ccco4)n3n2)cc1` the Potency was inconclusive: 100 µM [inhibitor, single point]. In the case of `Nc1ccsc1C(=O)N[C@H](Cc1ccncc1)C1CC(O)C1` (stereo not given in full), the Potency is reported as “inactive”. For `C[S+](=O)([O-])N1CC2(Cc3ccccc31)CN(C(=O)C1CC1)C2`, the Potency was “inactive”. In the case of `COc1ccccc1Nc1ccnc(N2CCC(C(=O)NCCc3ccc(Cl)cc3)CC2)n1`, the Potency is reported as inconclusive: 31.6 µM [inhibitor, full curve]. In the case of `CCOc1ccc(CC(=O)N2CCC(Cc3nc(C(C)C)no3)CC2)cc1OCC`, the Potency is reported as inconclusive: 79.4 µM [inhibitor, single point]. For `COc1ccc(S(=O)(=O)N2CCC3(CCC(=O)N(CC4CC4)CC3)CC2)cc1`, the Potency was inconclusive: 44.7 µM [inhibitor, partial curve, poor fit]. With `CC(C)CNc1ccc2c(n1)C(C)(C(=O)Nc1cccnc1)CN(Cc1ccccc1)C2` (stereo not given) the Potency was active: 50.1 µM. In the case of `Cc1cnc(C(=O)N2CCCCCCNC(=O)[C@@H]3C[C@@H](c4nc(-c5cccnc5)no4)C[C@@H]32)cn1`, the Potency is reported as “inactive”. For `COC(=O)[C@@H]1Cc2ncn(Cc3ccc(OC)cc3)c2CN1S(=O)(=O)c1ccc(F)cc1`, the Potency was “inactive”. With `COCCNc1ncnc2c1CN(C1CCNC1)C(=O)CN2C` (stereo not given) the Potency was “inactive”. With `CNC(=O)[C@@H]1CN(C(=O)Cc2c[nH]c3ccccc23)C[C@H]1COC` the Potency was inconclusive: 89.1 µM [inhibitor, single point]. For `COC[C@H]1NC(=O)CC[C@H]1C(=O)NCc1cc(F)cc(F)c1`, the Potency was “inactive”. For `COc1ccc2[nH]c3c(c2c1)CCNC31CCN(C(=O)c2ccccc2F)CC1`, the Potency was inconclusive: 8.91 µM [inhibitor, full curve, poor fit].
